How the values were obtained:
[1] = system: patients suffering from acute respiratory distress syndrome; experiment: Intravenous infusion of Aviptadil in patients with acute respiratory distress syndrome; type: in vivo, human; settings: intravenous infusion 50 pmol/kg bodyweight/hr for 12 hrs
Description: The following provides clinical examples for drug dosages, safety and efficacy for infused administration of the medicament formulation at pH values between 5.3-6.0 for patients with acute life threatening conditions like respiratory distress syndrome due to sepsis, burns, gas intoxications, and ischemia.

[2] = Stability of Aviptadil formulations: purity and assay (quantity) of Aviptadil by HPLC versus day zero
[3] = system: patients suffering from pulmonary hypertension; experiment: Inhaled administration of Aviptadil by patients with pulmonary hypertension; type: in vivo, human; settings: for decrease in pulmonary vascular resistance: vs baseline
Description: The following provides clinical examples for drug dosages, safety and efficacy for inhaled administration by chronically ill patients of the medicament formulation at pH values between 5.3-6.0.

[4] = isotonic salt solutions between 30° C. to 60° C.; cited from earlier work
[5] = patient with acute respiratory distress syndrome due to sepsis from peritonitis
[6] = patient with acute respiratory distress syndrome
[7] = pH 4.0, 0.15 M acetic acid/sodium acetate buffer, 25° C. (closed) for 14 days
[8] = pH 5.0, 0.15 M acetic acid/sodium acetate buffer, 25° C. (closed) for 14 days
[9] = pH 5.0, 0.15 M citric acid/trisodium citrate buffer/1 mM EDTA, 25° C. (closed) for 13 days
[10] = pH 5.0, 0.15 M phosphoric acid/trisodium phosphate buffer, 2-8° C. (closed) for 31 days
[11] = pH 5.0, 0.15 M phosphoric acid/trisodium phosphate buffer, 25° C. (closed) for 13 days and 2-8° C. for 18 days
[12] = pH 6.0, 0.15 M acetic acid/sodium acetate buffer, 25° C. (closed) for 14 days
[13] = pH 6.0, 0.15 M citric acid/trisodium citrate buffer/1 mM EDTA, 25° C. (closed) for 13 days
[14] = pH 6.0, 0.15 M phosphoric acid/trisodium phosphate buffer, 2-8° C. (closed) for 31 days
[15] = pH 6.0, 0.15 M phosphoric acid/trisodium phosphate buffer, 25° C. (closed) for 13 days and 2-8° C. for 18 days
[16] = pH 7.0, 0.15 M acetic acid/sodium acetate buffer, 25° C. (closed) for 14 days
[17] = pH 7.0, 0.15 M citric acid/trisodium citrate buffer/1 mM EDTA, 25° C. (closed) for 13 days
[18] = pH 7.0, 0.15 M phosphoric acid/trisodium phosphate buffer, 2-8° C. (closed) for 31 days
[19] = pH 7.0, 0.15 M phosphoric acid/trisodium phosphate buffer, 25° C. (closed) for 13 days and 2-8° C. for 18 days
[20] = patient with IPAH, inhaled 100 micrograms single dose
[21] = patient with pulmonary hypertension associated to chronic obstructive pulmonary disease, inhaled 100 micrograms single dose
[22] = patient with pulmonary hypertension associated to chronic obstructive pulmonary disease, inhaled 200 micrograms single dose
[23] = patient with pulmonary hypertension associated to post-VSD, inhaled 100 micrograms single dose
[24] = patient with pulmonary hypertension associated to scleroderma (CREST syndrome), inhaled 100 micrograms single dose
[25] = patient with pulmonary hypertension associated with extrinsic allergic alveolitis, inhaled 100 micrograms single dose

CC[C@H](C)[C@H](NC(=O)[C@H](CO)NC(=O)[C@H](CC(N)=O)NC(=O)[C@H](CC(C)C)NC(=O)[C@H](Cc1ccc(O)cc1)NC(=O)[C@H](CCCCN)NC(=O)[C@H](CCCCN)NC(=O)[C@@H](NC(=O)[C@H](C)NC(=O)[C@H](CCSC)NC(=O)[C@H](CCC(N)=O)NC(=O)[C@H](CCCCN)NC(=O)[C@H](CCCNC(=N)N)NC(=O)[C@H](CC(C)C)NC(=O)[C@H](CCCNC(=N)N)NC(=O)[C@@H](NC(=O)[C@H](Cc1ccc(O)cc1)NC(=O)[C@H](CC(N)=O)NC(=O)[C@H](CC(=O)O)NC(=O)[C@@H](NC(=O)[C@H](Cc1ccccc1)NC(=O)[C@@H](NC(=O)[C@H](C)NC(=O)[C@H](CC(=O)O)NC(=O)[C@H](CO)NC(=O)[C@@H](N)Cc1c[nH]cn1)C(C)C)[C@@H](C)O)[C@@H](C)O)C(C)C)C(=O)N[C@@H](CC(C)C)C(=O)N[C@@H](CC(N)=O)C(N)=O [Aviptadil]
patient outcome [1, 5]: survived and was discharged from intensive care unit and hospital for rehabilitation | systemic side effects [1, 5]: no systemic side effects | patient outcome [1, 6]: survived and was discharged from intensive care unit and hospital | systemic side effects [1, 6]: no systemic side effects | % Loss in Assay ([2]; Aviptadil concentration 0.033 mg/mL, 0.12 M citrate buffer, pH 5.7 at 2-8° C. for 10 weeks): −6.5% | % Loss in Assay ([2]; Aviptadil concentration 0.033 mg/mL, 0.15 M sodium chloride at 2-8° C. for 10 weeks): −7.9% | % Loss in Assay ([2]; Aviptadil concentration 0.066 mg/mL, 0.12 M citrate buffer, pH 5.7 at 2-8° C. for 10 weeks): +1.15% | % Loss in Assay ([2]; Aviptadil concentration 0.066 mg/mL, 0.15 M sodium chloride at 2-8° C. for 10 weeks): −2.7% | % Loss in Assay ([2]; Aviptadil concentration 2 mg/mL, 0.15 M sodium chloride at 2-8° C. for 10 weeks): −1.7% | increase of shelf life ([2]; Aviptadil concentration increased from 0.033 mg/mL to 0.066 mg/mL): about 3 fold | purity of sample ([2]; at the different concentrations of Aviptadil (Example 2)): did not show any significant change | shelf life predicted by extrapolation ([2]; extrapolation of the 10 weeks 5° C. data): at least 2 years | pH at which Aviptadil is most stable ([2]; from Tables 1-4, pH 4 to 7): ~6 | % Loss in Assay [2, 7]: −14.8% | % Loss in Purity [2, 7]: −11.3% | % Loss in Assay [2, 8]: −11.3% | % Loss in Purity [2, 8]: −6.3% | % Loss in Assay [2, 9]: −15.2% | % Loss in Purity [2, 9]: −3.0% | % Loss in Assay [2, 10]: −5.5% | % Loss in Purity [2, 10]: −1.7% | % Loss in Assay [2, 11]: −17.3% | % Loss in Purity [2, 11]: −8.1% | % Loss in Assay [2, 12]: −8.41% | % Loss in Purity [2, 12]: −1.67% | % Loss in Assay [2, 13]: −11.9% | % Loss in Purity [2, 13]: −0.1% | % Loss in Assay [2, 14]: −3.3% | % Loss in Purity [2, 14]: +1.2% | % Loss in Assay [2, 15]: −12.4% | % Loss in Purity [2, 15]: −4.7% | % Loss in Assay [2, 16]: −15.21% | % Loss in Purity [2, 16]: −6.15% | % Loss in Assay [2, 17]: −28.4% | % Loss in Purity [2, 17]: −17.1% | % Loss in Assay [2, 18]: −8.7% | % Loss in Purity [2, 18]: −2.7% | % Loss in Assay [2, 19]: −31.8% | % Loss in Purity [2, 19]: −23.5% | cardiac output [3, 20]: increase | irritation of the lungs [3, 20]: without any irritation of the lungs | mean arterial pulmonary pressure [3, 20]: decrease | systemic side effects [3, 20]: no systemic side effects | decrease in pulmonary vascular resistance [3, 20]: 20% | irritation of the lungs [3, 21]: without any irritation of the lungs | mean arterial pulmonary pressure [3, 21]: decrease | systemic side effects [3, 21]: no systemic side effects | decrease in pulmonary vascular resistance [3, 21]: 20% | cardiac output [3, 22]: increase | irritation of the lungs [3, 22]: without any irritation of the lungs | mean arterial pulmonary pressure [3, 22]: decrease | systemic side effects [3, 22]: no systemic side effects | decrease in pulmonary vascular resistance [3, 22]: 25% | cardiac output [3, 23]: increase | irritation of the lungs [3, 23]: without any irritation of the lungs | mean arterial pulmonary pressure [3, 23]: decrease | systemic side effects [3, 23]: no systemic side effects | decrease in pulmonary vascular resistance [3, 23]: 21% | cardiac output [3, 24]: increase | irritation of the lungs [3, 24]: without any irritation of the lungs | systemic side effects [3, 24]: no systemic side effects | decrease in pulmonary vascular resistance [3, 24]: 14% | cardiac output [3, 25]: increase | irritation of the lungs [3, 25]: without any irritation of the lungs | mean arterial pulmonary pressure [3, 25]: decrease | systemic side effects [3, 25]: no systemic side effects | decrease in pulmonary vascular resistance [3, 25]: 21% | lability [4]: acid-labile and thermo-labile
